# Data published in the supplement of paper PMC10126150.
# Values marked as one replicate rest on one cluster of the flow cell; about a third of the high ones do not repeat.
# System: ATP
# Experiment: switch fluorescence ratio, 500 uM ATP over buffer (Cy3 cluster intensity, sum of 5 cycles each) (fold (ratio)); higher = stronger signal-on switching upon ATP binding; sequences stand for … in TCGTCGGCAGCGTCAGATGTGTATAAGAGACAGTTTTTTTTTTTTTTTTTTTTTTTTT…TC
# Conditions: aptamer strand: ATP DNA aptamer (quencher-CACCTGGGGGAGTATTGCGGAGGAAGG + anchor), 100 nM annealed; ATP concentration: 500 uM; one replicate
# In short: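 Between each of five buffer/ATP cycles, the flow-cell was stripped with NaOH and re-annealed. Each cycle imaged Cy3-labelled switching-strand clusters, annealed to 100 nM quencher-labelled ATP aptamer on a modified Illumina MiSeq flow-cell, first in selection buffer and then after 15 min with 500 uM ATP at 22 °C. The fluorescence ratio is summed target-cycle over summed buffer-cycle Cy3 intensity per cluster, averaged per switch-domain sequence, with clusters outside 100-1000 RFU excluded.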
# 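Also: ATP exposure 15 min at 22 °C before imaging.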
row,Sequence,switch fluorescence ratio
1,ATGTATGCTC,1.01
2,ACTAGTTGAG,1.01
3,CACGTTCTTC,1.02
4,GGGAATAGTT,0.971
5,AACCCACTTA,1.27
6,TAGCAATTTC,3.93
7,GTAAGTTGCC,1.02
8,AGACTGATCG,0.991
9,AACATTGAA,1.03
10,CGTGAAGAGG,0.969
11,GGACACTATG,1.02
12,AAACTGGGCA,1.01
13,TGATTACGAA,1.05
14,TCAGGTAGAT,1.03
15,TACGGTATTG,1.11
16,CAAAGCCCTG,0.972
17,CCGGGCTCAT,1.16
18,TGAGGGCTGG,1.01
19,TCTCCCCACA,1.3
20,TCGGCGTGCG,0.982
21,ATGTTATAG,1.06
22,TCTTCGGTT,1.03
23,GGCCTACTGG,1
24,AGTGAGAAAG,0.986
25,TAATGCGTAC,1.32
26,TACCACACTG,1.42

row,Sequence,switch fluorescence ratio
1,AGTCGAAGCC,1.03
2,GTGTTGGC,1.03
3,TCCGTACACA,1.3
4,AGGGAGAGAA,0.999
5,CGTCATAAGC,1.09
6,ACCCTGTCGT,0.985
7,GAGGGTTACA,0.982
8,GCGTTACGGC,1.07
9,GACCGGGGGT,2.67
10,TTGTCCACCT,1.08
11,TTGAATGACC,1.04
12,CGATACGCCG,1.14
13,TGGATTGGAA,0.997
14,TGAGTTGTGA,0.995
15,CCCGGGTCAA,1.02
16,TTAGACCCAT,0.991
17,GCCTGCCGTC,1.04
18,TTAATTACCT,1.27
19,AACAGCGTCT,1.05
20,ACAGTTCGCT,1.07
21,TATTCTACTA,1.01
22,CGCGGGTAAT,0.998
23,GAGCTTGATT,1.01
24,CGTTACCCCA,1.13
25,GCCGCCGAAC,1.15
26,TCGCGTTCTA,0.963

row,Sequence,switch fluorescence ratio
1,GGCAACGTCA,1.01
2,ATTTTCTAAG,1.02
3,TAGTCATCCT,0.97
4,TTTTGGAGTG,0.983
5,GTATGGGAGC,0.99
6,CATAAAGGTC,1.02
7,CGAAAGAGGT,0.98
8,GGGAGCGCTC,0.996
9,GGGTCTGCGG,1.01
10,TTCGTGCAAA,0.995
11,TTCTTTGGCG,0.979
12,CACATCTCCC,1.17
13,GTTAAAATAG,1.05
14,CAGAGACTA,1.03
15,GACCATACTC,1.7
16,ATTATTTCT,0.961
17,TAGTCTAGAT,1.01
18,CCCTCTTGCA,1.46
19,TCTATTAAGT,1.01
20,ATGTAGGATC,0.995
21,TTGGGGGAG,1.01
22,TGGCTTTCGG,1.01
23,GTCCTGTTAA,1
24,GAGGTGTCGG,0.956
25,CAGCTGGTGG,0.997
26,GTCATAGCA,1.01

row,Sequence,switch fluorescence ratio
1,TATTCTGACA,1.04
2,GGGCCGGTGG,0.995
3,GTTGTAGGGC,1.02
4,GACAACCGCC,1.43
5,TTCGGGACC,1.02
6,CGGGATAAGG,1.01
7,ACTATAAAG,1.05
8,CGGGACGAGG,1
9,CTCTTAGCAA,2.49
10,TAATGAAAGG,0.992
11,CCGACACCGT,1.28
12,GGCTTGGTTT,0.975
13,CAGTTATAGT,1.06
14,TCATAAGAG,1.02
15,ATTCGTATTC,1.02
16,CAGAGGATAC,1.05
17,CGATAAGATA,1.02
18,CGTTCCATCG,1.03
19,TGTCCGCTTG,1.06
20,GATAACACTC,1.06
21,CGTTTATGAC,1.04
22,TCAGTGCCGT,0.988
23,AGAGCGTTAA,1.09
24,AATGTGATGA,0.996
25,ATTAAGAGC,1
26,TCGGCGAGGC,1.09

row,Sequence,switch fluorescence ratio
1,CAAGCCTTAA,1.04
2,GTCATAAAGT,1.02
3,GTTGGCGGAG,1.01
4,TAATACAGGA,1.03
5,CCAAGGAATG,1.03
6,CGCTCTATTA,1.03
7,CCTTATATGT,0.986
8,GACAATG,1.05
9,AAGAGCACTA,1.02
10,AGTCAGCTGC,1.03
11,GTGAACGGAC,1.2
12,ATCACTCATA,1.02
13,TATCATCCC,1.08
14,GCGACTGAGT,0.997
15,ATTTAATGTT,1.03
16,AGAAGCATGT,1.03
17,CGGAGGCGAC,1.22
18,ACAAAATTTG,0.983
19,TACCGCGAAC,2.47
20,ACCTGGGCCG,1.08
21,CTTACTGCCT,1.24
22,ATAGTCAGGC,1.06
23,TGCTATTCTT,0.993
24,AAGTAGCTTG,0.963
25,ATATATTT,0.958
26,TGGCTAACTG,0.973

row,Sequence,switch fluorescence ratio
1,GGTCAATAGA,0.992
2,CTTTGTTGCT,0.993
3,TATAAATCGG,0.941
4,ATTATATTCC,1.01
5,CATAGCCCGA,1.03
6,TATCTTGGGT,1
7,CGGACTTAGG,1.03
8,GGTCTCTGCG,1.02
9,GATAGAGTTG,0.984
10,GACATCTGGC,0.985
11,CGGATAAAGC,0.982
12,CGTGAATGTG,0.928
13,TGCAGTTTTA,1.04
14,TAATATCCGC,1.13
15,CGGCCTCGCG,1.02
16,CAATTCGTGT,1
17,AAACACTAAC,1.27
18,TGTTGGGAGC,0.974
19,CAATTAGTGG,0.95
20,AGGAATTGGT,0.992
21,TCTCAATTTA,1.01
22,GTATATTTGG,0.948
23,GCCTGCTCC,1.18
24,TTTCGTAAGT,1.02
25,CAGGCGAGGT,0.983
26,ATTACCATTG,1.01

row,Sequence,switch fluorescence ratio
1,GCCTTTTACT,1
2,TCATAGCCAA,1.21
3,CCGGACGAGC,1.25
4,AGTAGAATTT,0.973
5,ATATATTAAG,0.995
6,GGCAGTTAGG,1.04
7,TTAAGACATT,0.99
8,CAGCTGAATG,0.952
9,TGGATAGGGC,1.04
10,CTGTGTGGGG,0.965
11,GCTGAGATT,1.02
12,AAACAGTAGG,1.06
13,TTGTGTCCGC,1.95
14,TTGTATTGAT,1.01
15,GTAAGTCTAA,1.03
16,TCCTCTTCAA,1.04
17,GTATCTCTTA,0.974
18,CGTATGTGTC,1.03
19,ATCCTCTATT,1.05
20,CAATTGCCCC,1.06
21,GCCGCTATCG,1.09
22,AGGATTCGCG,1.08
23,AGTGGCGCCG,1.01
24,TTGAGCCAGG,1.11
25,GATACATCCG,1.1
26,TACTGAATCG,1

row,Sequence,switch fluorescence ratio
1,GCGGCAGGGG,0.973
2,CGGTTGGTGC,1.1
3,TAGCTGTGGA,1.01
4,CCAGCAGTCA,1.13
5,AGATTTCGAG,0.992
6,ACAAAGGCGT,1.03
7,CGCTTGATGA,1.01
8,TATGATCTTG,1.05
9,TGAATAGTTT,1.02
10,GTGTGATGCC,0.981
11,AATACACGGA,1.04
12,CAAGAAATCA,0.955
13,GATTCCGTGA,1.27
14,AACGAACGAT,1.34
15,CCGGGGCCGA,1.02
16,CTGGAAGTGT,0.947
17,TCAACGACCC,1.24
18,ACTTTTGGCT,1
19,AGCCGGGAGG,0.982
